The list shows a part of the results. Single values are uncertain, as repeats are few or missing.
Legend:
[1] = test system: IMR-32; assay: drug sensitivity score (DSS), single drug with vehicle (DSS (score)); higher = more cytotoxic; extreme values may be limits of the assay; settings: 72 h; co-treatment: vehicle (DMSO)
[2] = test system: SK-N-AS; assay: as above; settings: 72 h; co-treatment: vehicle (DMSO)
[3] = test system: SK-N-AS; assay: drug sensitivity score (DSS) in combination with SL-176 (DSS (score)); higher = more cytotoxic; extreme values may be limits of the assay; settings: 72 h; co-treatment: SL-176 11.2 uM (IC25 in IMR-32)
[4] = test system: IMR-32; assay: as above; settings: 72 h; co-treatment: SL-176 11.2 uM (IC25 in IMR-32)
[5] = test system: SK-N-AS; assay: drug sensitivity score (DSS) in combination with GSK2830371 (DSS (score)); neuroblastoma lines; SL-176 and GSK2830371 are WIP1 inhibitors; higher = more cytotoxic; extreme values may be limits of the assay; settings: 72 h; co-treatment: GSK2830371 at IC25 in IMR-32
[6] = test system: IMR-32; assay: as above; settings: 72 h; co-treatment: GSK2830371 at IC25 in IMR-32
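Wherever drug sensitivity score (DSS) in combination with GSK2830371 is given: neuroblastoma cells in 384-well plates, each compound at five concentrations, luminescence read-out, DSS derived from fitted concentration-response curve combining IC50 with minimum and maximum inhibition.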
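Wherever drug sensitivity score (DSS) in combination with SL-176 is given: cells in 384-well plates, luminescence read-out, each screening drug at five concentrations, DSS derived from the fitted concentration-response curve combining IC50 with minimum and maximum inhibition.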
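Wherever drug sensitivity score (DSS), single drug with vehicle is given: 384-well screen with five concentrations per compound and a luminescence read-out, DSS computed from the fitted dose-response curve combining IC50 with minimum and maximum inhibition.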

Row | SMILES | drug sensitivity score [1] | drug sensitivity score [2] | drug sensitivity score [3] | drug sensitivity score [4] | drug sensitivity score [5] | drug sensitivity score [6]
1 | C[C@]12CC[C@@H]3c4ccc(O)cc4C[C@@H](CCCCCCCCC[S+]([O-])CCCC(F)(F)C(F)(F)F)[C@H]3[C@@H]1CC[C@@H]2O (stereo partly specified) [Fulvestrant] | 0 | 0 | 0 | 0 | 0 | 0.3
2 | CCN(CC)CCN(Cc1ccc(-c2ccc(C(F)(F)F)cc2)cc1)C(=O)Cn1c(SCc2ccc(F)cc2)nc(=O)c2c1CCC2 [Darapladib] | 1.3 | 0 | 0 | 0.4 | 0.9 | 1
3 | COc1cc(N2CCC(N3CCN(C)CC3)CC2)ccc1Nc1ncnc(Nc2ccccc2S(=O)(=O)C(C)C)n1 | 3.2 | 6.3 | 5.9 | 14.5 | 7 | 3.6
4 | CNC(=O)c1ccccc1Nc1nc(Nc2ccc3c(c2OC)CCC[C@H](N2CCN(CCO)CC2)C3)ncc1Cl | 6.2 | 9.7 | 9.4 | 7.7 | 9.2 | 4.9
5 | CCCCCCCCc1ccc(CCC(N)(CO)CO)cc1 [Fingolimod] | 7 | 6.7 | 7.6 | 7.2 | 8.2 | 4.9
6 | C[C@H]1CNCCCN1S(=O)(=O)c1cccc2cncc(F)c12 [Ripasudil] | 0 | 0 | 0 | 1.3 | 0 | 0
7 | CS(=O)(=O)c1ccc(C(=O)Nc2ccc(Cl)c(-c3ccccn3)c2)c(Cl)c1 [Vismodegib] | 0 | 0 | 0 | 0 | 0 | 0
8 | COc1cc2ncnc(Nc3ccc(F)c(Cl)c3)c2cc1NC(=O)/C=C/CN1CCCCC1 [Dacomitinib] | 0 | 1.4 | 0.9 | 0.3 | 0.9 | 0
9 | CC(=O)N(O)CCCCCNC(=O)CCC(=O)N(O)CCCCCNC(=O)CCC(=O)N(O)CCCCCN [Deferoxamine] | 9.6 | 5 | 4 | 12.1 | 3.8 | 15
10 | COc1cc(Br)c(Nc2nc(-c3c(C)nc4ncccn34)cs2)c(Br)c1 | 12.2 | 5.7 | 5.2 | 11.1 | 6.2 | 15.3
11 | COc1ccccc1S(=O)(=O)Nc1ccc2c(c1)CN(C)C(=O)N2 | 6.3 | 6.1 | 6.7 | 5.7 | 5.1 | 4
12 | N#CCNC(=O)c1ccc(-c2ccnc(Nc3ccc(N4CCOCC4)cc3)n2)cc1 [Momelotinib] | 6.6 | 4.6 | 4.7 | 5.3 | 4.8 | 5.6
13 | Cc1cc(OCc2nnc(SC3CCCC3)n2-c2cccnc2)ccc1-c1ccc(S(C)(=O)=O)cc1 | 8.9 | 13.2 | 10.3 | 9.4 | 9.8 | 8.7
14 | Cc1ccc(C(=O)Nc2cccc(C(F)(F)F)c2)cc1Nc1nc(-c2cccnc2)nc2c1cnn2C | 8.1 | 8.2 | 7.8 | 5.2 | 8.4 | 6.8
15 | Nc1nc(N)c2nc(-c3cccc(O)c3)c(-c3cccc(O)c3)nc2n1 | 2 | 0 | 0 | 0 | 0 | 0.9
16 | CCN(CC)CCOc1ccc(C(=C(Cl)c2ccccc2)c2ccccc2)cc1 [Clomifene] | 6 | 4.9 | 8 | 5.4 | 6.4 | 7.3
17 | CC[C@]1(O)C[C@@H]2CN(CCc3c([nH]c4ccccc34)[C@@](C(=O)OC)(c3cc4c(cc3OC)N(C)[C@H]3[C@@](O)(C(=O)OC)[C@H](OC(C)=O)[C@]5(CC)C=CCN6CC[C@]43[C@@H]65)C2)C1 [Vinblastine] | 32.9 | 21.1 | 20.1 | 30.2 | 21.6 | 31
18 | CN(C)CCCOc1ccc(-c2ccc3ncc4c(c3c2)n(C2CCOCC2)c(=O)n4C)cn1 | 0 | 1 | 0.2 | 0.3 | 0.3 | 0.2
19 | N#Cc1ccc2[nH]c(O)c(-c3ccc(CN4CCOCC4)cn3)c2c1 | 0 | 0 | 0 | 0 | 0 | 0
20 | CCNc1nc(Nc2cc(F)c(C(=O)N3CCOCC3)cc2OC)ncc1C(F)(F)F | 0 | 0 | 0 | 0 | 0 | 0
21 | Cc1ncc(Cl)cc1NCc1ccc(C(=O)N[C@@H](CC2CCCC2)C(=O)NC2CC2)s1 | 2.8 | 0.9 | 0.4 | 11.2 | 0.1 | 1.3
22 | C=CCN(/C=C1/C(=O)O[C@H](COC)[C@@]2(C)C1=C(O)C(=O)C1=C2[C@H](OC(C)=O)C[C@]2(C)C(=O)CC[C@@H]12)CC=C [Sonolisib] | 0.2 | 0.2 | 0 | 0.3 | 0 | 0
23 | CCCOc1ccn2c(C(C)=O)cc(-c3ccccc3S(C)(=O)=O)c2c1 | 0 | 0 | 0 | 0 | 0 | 0
24 | CNC(=O)c1cc(Oc2ccc(NC(=O)Nc3ccc(Cl)c(C(F)(F)F)c3)c(F)c2)ccn1 [Regorafenib] | 6.6 | 6.8 | 8 | 9 | 7.3 | 7.7
25 | Cc1cc(C(C)Nc2ccccc2)c2nc(N3CCOCC3)cc(=O)n2c1 (stereo unspecified) | 0 | 0.3 | 0.4 | 0 | 0.7 | 3
26 | CC(C)N(CCCNC(=O)Nc1ccc(C(C)(C)C)cc1)C[C@H]1O[C@@H](n2cc(Br)c3c(N)ncnc32)[C@H](O)[C@@H]1O | 0.3 | 1 | 0.8 | 1 | 0 | 1.6

Reference: the supplement of paper PMC12009370
